Measured values reported in article PMC9911399, “Two distinct binding modes provide the RNA-binding protein RbFox with extraordinary sequence specificity”.
Positions count from the first letter of the chain named. The list shows a part of the results.

T1: RBFOX1 RRM RbFoxmut (Fox-RRM*) (Homo sapiens, UniProt Q9NWB1 109-208, R118D;E147R;N151S;E152T)
T1 sequence: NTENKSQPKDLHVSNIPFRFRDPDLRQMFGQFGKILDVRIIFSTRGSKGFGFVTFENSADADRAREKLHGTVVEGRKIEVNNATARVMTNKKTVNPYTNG

B1: AUGCGUG (DNA:RNA)
RNA: GGGAGACCGGAAUUCAGAUUGUCCAUGCGUGUUAAAUCCCGUCGUAGCCACCA
DNA 1: CAATCTGAATTCCGGTCTCCC
DNA 2: TGGTGGCTACGACGGGATT
B2: UCCCAGG (DNA:RNA)
RNA: B1 RNA with A25U, U26C, G27C, G29A, U30G
DNA 1: CAATCTGAATTCCGGTCTCCC
DNA 2: TGGTGGCTACGACGGGATT
B3: GUUAGUA (DNA:RNA)
RNA: B1 RNA with A25G, G27U, C28A, G31A
DNA 1: CAATCTGAATTCCGGTCTCCC
DNA 2: TGGTGGCTACGACGGGATT
B4: GCUAUGC (DNA:RNA)
RNA: GGGAGACCGGAAUUCAGAUUGUCCGCUAUGCUUAAAUCCCGUCGUAGCCACCA
DNA 1: CAATCTGAATTCCGGTCTCCC
DNA 2: TGGTGGCTACGACGGGATT
B5: CACGGAG (DNA:RNA)
RNA: B1 RNA with A25C, U26A, G27C, C28G, U30A
DNA 1: CAATCTGAATTCCGGTCTCCC
DNA 2: TGGTGGCTACGACGGGATT
B6: UGAAAUU (DNA:RNA)
RNA: B1 RNA with A25U, U26G, G27A, C28A, G29A, G31U
DNA 1: CAATCTGAATTCCGGTCTCCC
DNA 2: TGGTGGCTACGACGGGATT
B7: CAUCCAG (DNA:RNA)
RNA: B1 RNA with A25C, U26A, G27U, G29C, U30A
DNA 1: CAATCTGAATTCCGGTCTCCC
DNA 2: TGGTGGCTACGACGGGATT
B8: CAGAUGG (DNA:RNA)
RNA: B4 RNA with G25C, C26A, U27G, C31G
DNA 1: CAATCTGAATTCCGGTCTCCC
DNA 2: TGGTGGCTACGACGGGATT
B9: AAGAAGA (DNA:RNA)
RNA: B1 RNA with U26A, C28A, G29A, U30G, G31A
DNA 1: CAATCTGAATTCCGGTCTCCC
DNA 2: TGGTGGCTACGACGGGATT
B10: AAGAACC (DNA:RNA)
RNA: B1 RNA with U26A, C28A, G29A, U30C, G31C
DNA 1: CAATCTGAATTCCGGTCTCCC
DNA 2: TGGTGGCTACGACGGGATT
B11: ACGGCAA (DNA:RNA)
RNA: B1 RNA with U26C, C28G, G29C, U30A, G31A
DNA 1: CAATCTGAATTCCGGTCTCCC
DNA 2: TGGTGGCTACGACGGGATT
B12: ACGGUUC (DNA:RNA)
RNA: B1 RNA with U26C, C28G, G29U, G31C
DNA 1: CAATCTGAATTCCGGTCTCCC
DNA 2: TGGTGGCTACGACGGGATT
B13: CAAGAUG (DNA:RNA)
RNA: B1 RNA with A25C, U26A, G27A, C28G, G29A
DNA 1: CAATCTGAATTCCGGTCTCCC
DNA 2: TGGTGGCTACGACGGGATT
B14: ACCCCGA (DNA:RNA)
RNA: B1 RNA with U26C, G27C, G29C, U30G, G31A
DNA 1: CAATCTGAATTCCGGTCTCCC
DNA 2: TGGTGGCTACGACGGGATT
B15: CGCCAUU (DNA:RNA)
RNA: B1 RNA with A25C, U26G, G27C, G29A, G31U
DNA 1: CAATCTGAATTCCGGTCTCCC
DNA 2: TGGTGGCTACGACGGGATT
B16: CAUGCUA (DNA:RNA)
RNA: B1 RNA with A25C, U26A, G27U, C28G, G29C, G31A
DNA 1: CAATCTGAATTCCGGTCTCCC
DNA 2: TGGTGGCTACGACGGGATT
B17: GUUACCA (DNA:RNA)
RNA: B4 RNA with C26U, U29C, G30C, C31A
DNA 1: CAATCTGAATTCCGGTCTCCC
DNA 2: TGGTGGCTACGACGGGATT
B18: GUCAUCU (DNA:RNA)
RNA: B4 RNA with C26U, U27C, G30C, C31U
DNA 1: CAATCTGAATTCCGGTCTCCC
DNA 2: TGGTGGCTACGACGGGATT
B19: UAAUAAU (DNA:RNA)
RNA: GGGAGACCGGAAUUCAGAUUGUCCUAAUAAUUUAAAUCCCGUCGUAGCCACCA
DNA 1: CAATCTGAATTCCGGTCTCCC
DNA 2: TGGTGGCTACGACGGGATT
B20: CAGUACG (DNA:RNA)
RNA: B19 RNA with U25C, A27G, A30C, U31G
DNA 1: CAATCTGAATTCCGGTCTCCC
DNA 2: TGGTGGCTACGACGGGATT

Target: T1, RBFOX1 RRM RbFoxmut (Fox-RRM*)
Test: EMSA; HiTS-Eq, 1 nM pool, 10 min; buffer printed only for the single-RNA assays: 10 mM Tris pH 7.5, 150 mM NaCl, 3.4 mM EDTA, 0.001% NP-40, 30 C
Conditions: tags: His6 N-terminal (pET28a); label: 5' 32P
Method in brief: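 A pool of RNA with 7 randomized nucleotides, 5′-radiolabelled and with DNA-annealed flanks, was equilibrated at 1 nM for 10 min in 50 µL with purified RbFox RRM, wild type or mutant, across increasing protein concentrations. Free RNA was separated by 8% native PAGE, excised, reverse-transcribed, barcoded by PCR and sequenced. Relative association constants were obtained from read-count changes of each RNA species versus the control reaction and normalised to the cognate motif.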

Binder	binding signal
B1	0.261 KA relative to UGCAUGU
B2	0.0761 KA relative to UGCAUGU
B3	0.141 KA relative to UGCAUGU
B4	0.112 KA relative to UGCAUGU
B5	0.121 KA relative to UGCAUGU
B6	0.0713 KA relative to UGCAUGU
B7	0.12 KA relative to UGCAUGU
B8	0.0858 KA relative to UGCAUGU
B9	0.104 KA relative to UGCAUGU
B10	0.0853 KA relative to UGCAUGU
B11	0.0858 KA relative to UGCAUGU
B12	0.122 KA relative to UGCAUGU
B13	0.0773 KA relative to UGCAUGU
B14	0.0644 KA relative to UGCAUGU
B15	0.0791 KA relative to UGCAUGU
B16	0.133 KA relative to UGCAUGU
B17	0.0752 KA relative to UGCAUGU
B18	0.111 KA relative to UGCAUGU
B19	0.0595 KA relative to UGCAUGU
B20	0.124 KA relative to UGCAUGU
